Laboratory results published in publication PMC3197643 (2011).
Read-outs that look alike come from different tables or passages of the source. No constants are given. Whether binding was seen depends on the method and setting. For part of these data: Binding seen in cells or lysates may run through a third protein. Some entries that bind do so weakly or less than the wild type. Tags and fused reporters may be left off the sequences shown.

What was measured:
[1] = target: T1, V5-tagged full-length OX1R (mouse) (UniProt P58307); assay: co-IP; HEK293 cells transfected; whole-cell lysates in IP buffer (1% NP-40, 150 mM NaCl, 10 mM sodium phosphate), IP with anti-V5 and protein G-Sepharose at 4°C, IB with anti-Myc; in Fig. 5A cells stimulated with OX-A or vehicle for 30 min
T1 sequence: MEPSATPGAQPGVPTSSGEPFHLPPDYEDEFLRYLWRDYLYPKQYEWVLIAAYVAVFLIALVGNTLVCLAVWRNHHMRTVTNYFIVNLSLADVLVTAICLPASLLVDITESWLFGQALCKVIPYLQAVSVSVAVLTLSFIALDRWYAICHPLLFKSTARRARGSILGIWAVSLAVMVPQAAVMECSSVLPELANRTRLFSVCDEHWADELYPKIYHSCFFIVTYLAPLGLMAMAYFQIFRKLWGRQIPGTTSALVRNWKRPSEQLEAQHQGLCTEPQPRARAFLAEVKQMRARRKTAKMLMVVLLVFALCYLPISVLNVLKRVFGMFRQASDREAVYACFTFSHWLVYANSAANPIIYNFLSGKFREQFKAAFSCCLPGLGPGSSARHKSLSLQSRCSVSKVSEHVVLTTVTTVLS

[2] = target: T2, OX2R CTD, carboxy-terminal domain of OX2R (a.a. 367–460), fused to GAL4 DNA binding domain (mouse) (UniProt P58308); assay: two-hybrid; co-transformation of pGBKT7-OX1R CTD or -OX2R CTD (wild-type or mutants) with pGADT7-Dynlt1 or -Dynlt3 (wild-type or mutants); HIS3 test in AH109 with 1 to 25 mM 3-AT; ONPG liquid β-galactosidase assay in Y187
T2 sequence: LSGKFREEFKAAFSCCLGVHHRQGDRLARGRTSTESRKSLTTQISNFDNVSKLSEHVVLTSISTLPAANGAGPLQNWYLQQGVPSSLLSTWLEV

[3] = target: T3, OX1R CTD T409, 412A, OX1R CTD with T409 and T412 mutated into alanine residues, fused to GAL4 DNA binding domain (mouse) (UniProt P58307); assay: as above
T3 sequence: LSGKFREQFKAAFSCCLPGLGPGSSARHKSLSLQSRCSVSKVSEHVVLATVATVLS

[4] = target: T4, OX1R CTD Δ397–416, OX1R CTD lacking the last 20 a.a., fused to GAL4 DNA binding domain (mouse) (UniProt P58307); assay: as above
T4 sequence: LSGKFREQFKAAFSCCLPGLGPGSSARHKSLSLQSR

[5] = target: T5, OX2R CTD Δ433–460, OX2R CTD lacking the extra 28 a.a. compared to OX1R CTD, fused to GAL4 DNA binding domain (mouse) (UniProt P58308); assay: as above
T5 sequence: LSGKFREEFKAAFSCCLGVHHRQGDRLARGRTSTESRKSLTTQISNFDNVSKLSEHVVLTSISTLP

[6] = target: T6, OX1R CTD Δ407–416, OX1R CTD lacking the last 10 a.a., fused to GAL4 DNA binding domain (mouse) (UniProt P58307); assay: as above
T6 sequence: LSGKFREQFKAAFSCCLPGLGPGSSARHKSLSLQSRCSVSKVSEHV

[7] = target: T7, V5-OX1R mutant T409A, T412A (mouse) (UniProt P58307); assay: co-IP; HEK293 cells transfected; whole-cell lysates in IP buffer (1% NP-40, 150 mM NaCl, 10 mM sodium phosphate), IP with anti-V5 and protein G-Sepharose at 4°C, IB with anti-Myc; in Fig. 5A cells stimulated with OX-A or vehicle for 30 min
T7 sequence: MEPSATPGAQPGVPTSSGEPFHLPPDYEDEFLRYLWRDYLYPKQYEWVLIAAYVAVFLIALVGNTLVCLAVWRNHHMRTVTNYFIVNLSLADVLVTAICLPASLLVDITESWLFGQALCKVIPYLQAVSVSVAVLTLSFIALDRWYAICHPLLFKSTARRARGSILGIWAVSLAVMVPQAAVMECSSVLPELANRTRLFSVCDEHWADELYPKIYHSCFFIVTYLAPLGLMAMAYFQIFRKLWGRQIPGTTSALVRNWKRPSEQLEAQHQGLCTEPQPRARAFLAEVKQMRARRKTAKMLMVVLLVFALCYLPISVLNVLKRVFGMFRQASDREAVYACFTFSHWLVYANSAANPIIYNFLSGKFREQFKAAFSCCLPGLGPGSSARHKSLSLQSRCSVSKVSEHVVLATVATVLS

[8] = target: T8, V5-OX1R Δ364–416, V5-OX1R lacking its CTD (mouse) (UniProt P58307); assay: as above
T8 sequence: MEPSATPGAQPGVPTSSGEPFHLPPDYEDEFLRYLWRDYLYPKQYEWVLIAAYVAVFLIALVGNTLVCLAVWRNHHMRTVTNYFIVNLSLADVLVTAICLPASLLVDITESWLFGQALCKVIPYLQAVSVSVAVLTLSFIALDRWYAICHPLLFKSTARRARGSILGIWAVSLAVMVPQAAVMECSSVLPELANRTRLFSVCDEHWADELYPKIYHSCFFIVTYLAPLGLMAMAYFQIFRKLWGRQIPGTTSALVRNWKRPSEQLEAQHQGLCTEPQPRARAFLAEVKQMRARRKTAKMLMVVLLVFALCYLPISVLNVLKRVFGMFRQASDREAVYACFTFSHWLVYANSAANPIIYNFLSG

[9] = target: T9, V5-OX1R lacking the last 10 amino acids (Δ407–416) (mouse) (UniProt P58307); assay: as above
T9 sequence: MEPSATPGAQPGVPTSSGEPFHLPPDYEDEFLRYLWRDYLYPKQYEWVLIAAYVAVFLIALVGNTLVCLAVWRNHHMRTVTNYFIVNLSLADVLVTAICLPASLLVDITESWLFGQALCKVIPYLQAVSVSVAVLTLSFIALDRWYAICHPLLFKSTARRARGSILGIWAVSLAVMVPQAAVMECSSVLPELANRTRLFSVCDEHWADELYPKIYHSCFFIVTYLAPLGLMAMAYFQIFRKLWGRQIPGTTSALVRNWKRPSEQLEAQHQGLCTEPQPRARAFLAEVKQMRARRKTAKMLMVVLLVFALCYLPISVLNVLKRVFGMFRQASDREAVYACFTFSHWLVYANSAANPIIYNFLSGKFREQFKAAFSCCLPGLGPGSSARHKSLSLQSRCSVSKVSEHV

[10] = target: T10, Full-length OX1R-EGFP fusion protein (carboxy-terminal tagged OX1R-GFP) (mouse) (UniProt P58307); assay: co-IP; HEK293 cells transfected with pCS2-Myc-Dynlt1 and pEGFP-N1-OX1R; whole-cell lysates, IP with anti-GFP, IB with anti-Myc
T10 sequence: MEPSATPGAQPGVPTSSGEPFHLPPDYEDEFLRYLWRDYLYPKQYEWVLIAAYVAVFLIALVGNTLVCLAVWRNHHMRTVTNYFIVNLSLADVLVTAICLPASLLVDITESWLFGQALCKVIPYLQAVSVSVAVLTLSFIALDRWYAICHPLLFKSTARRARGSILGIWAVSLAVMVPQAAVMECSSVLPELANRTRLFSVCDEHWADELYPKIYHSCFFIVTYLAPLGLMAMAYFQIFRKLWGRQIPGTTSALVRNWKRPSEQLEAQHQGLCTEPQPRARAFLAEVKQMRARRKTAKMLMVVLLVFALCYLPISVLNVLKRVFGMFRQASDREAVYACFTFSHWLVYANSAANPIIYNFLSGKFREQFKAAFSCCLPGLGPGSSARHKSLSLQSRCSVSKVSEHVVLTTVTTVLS

[11] = target: T3, OX1R CTD T409, 412A, OX1R CTD with T409 and T412 mutated into alanine residues, fused to GAL4 DNA binding domain (mouse); assay: two-hybrid; co-transformation of pGBKT7-OX1R CTD or -OX2R CTD (wild-type or mutants) with pGADT7-Dynlt1 or -Dynlt3 (wild-type or mutants); HIS3 test in AH109 with 1 to 25 mM 3-AT; ONPG liquid β-galactosidase assay in Y187; remark: listed apart in the source
[12] = target: T2, OX2R CTD, carboxy-terminal domain of OX2R (a.a. 367–460), fused to GAL4 DNA binding domain (mouse); assay: as above; remark: listed apart in the source

For “Myc-tagged Dynlt1 lacking the amino-terminus (Δ1–14) (from UniProt P51807 15-113) (domain or fragment)”, which binding [1] is on record?
Its binding is “binds”.

“Dynlt1 Δ1–14, Dynlt1 lacking a.a. 1–14, fused to GAL4 activation domain (from UniProt P51807 15-113) (domain or fragment)” was tested. Which binding [2] did it give?
Its binding is “binds”.

With “Dynein light chain Tctex-type 1 (Dynlt1) fused to GAL4 activation domain (from UniProt P51807 1-113)” as the molecule, how does the binding [3] read?
Its binding is “binds”.

And the binding [2]?
Its binding is “binds weakly”.

And the binding [4]?
The binding was “no binding”.

And the binding [5]?
Its binding is “binds”.

And the binding [6]?
The binding was “binds weakly”.

“Myc-tagged Dynlt1 (from UniProt P51807 1-113)” was tested. Which binding [1] did it give?
Its binding is “binds”.

And the binding [7]?
Its binding is “binds”.

What about the binding [8] of the same molecule?
Its binding is “no binding”.

And the binding [9]?
The binding was “no binding”.

What about the binding [10] of the same molecule?
Its binding is “binds”.

For “Myc-tagged Dynlt1 lacking the carboxy-terminus (Δ91–113) (from UniProt P51807 1-90) (domain or fragment)”, which binding [1] is on record?
Its binding is “binds”.

B1: Dynein light chain Tctex-type 3 (Dynlt3) fused to GAL4 activation domain (protein, UniProt P56387 1-116)
chain: MEGYQRPCDEVGFNADEAHNIVKECVDGVLGGNDYNENNINQWTASIVEQSITHLVKLGKAYKYIVTCAVVQRSPYGFHTASSCFWDTTSDGTCTIRWENRTMNCIVNVFAVAIVL
Which results are given for B1?
binding [11]: binds weakly; binding [12]: no binding
